Assay results published in publication PMC4196162.
No constants are given. Whether binding was seen depends on the method and setting. Binding seen in cells or lysates may run through a third protein. Some binding calls cover weakened binding; strength is not graded here.

Protein sequences, listed by entry. Tags and fused reporters are not part of them.
UniProt O89090: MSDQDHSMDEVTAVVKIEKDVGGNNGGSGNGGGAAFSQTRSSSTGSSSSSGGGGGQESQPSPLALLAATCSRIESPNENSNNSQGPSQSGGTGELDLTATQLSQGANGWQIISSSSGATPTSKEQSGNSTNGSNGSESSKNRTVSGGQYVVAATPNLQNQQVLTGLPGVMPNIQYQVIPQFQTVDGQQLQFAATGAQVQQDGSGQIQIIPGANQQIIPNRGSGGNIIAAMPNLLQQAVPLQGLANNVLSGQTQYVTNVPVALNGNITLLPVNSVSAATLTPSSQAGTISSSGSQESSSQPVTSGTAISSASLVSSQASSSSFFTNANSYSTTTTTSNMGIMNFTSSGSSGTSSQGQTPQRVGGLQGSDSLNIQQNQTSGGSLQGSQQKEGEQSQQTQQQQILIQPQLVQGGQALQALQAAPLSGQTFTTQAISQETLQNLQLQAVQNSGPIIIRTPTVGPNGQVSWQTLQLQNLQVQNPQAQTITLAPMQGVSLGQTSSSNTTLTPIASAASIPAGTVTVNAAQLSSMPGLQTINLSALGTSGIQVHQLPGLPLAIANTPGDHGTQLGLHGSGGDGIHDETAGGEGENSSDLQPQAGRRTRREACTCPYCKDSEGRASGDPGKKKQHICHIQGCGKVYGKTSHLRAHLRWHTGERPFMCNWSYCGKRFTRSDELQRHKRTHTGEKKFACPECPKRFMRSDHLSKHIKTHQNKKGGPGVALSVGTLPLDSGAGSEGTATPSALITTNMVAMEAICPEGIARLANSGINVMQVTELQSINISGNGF
UniProt Q02248: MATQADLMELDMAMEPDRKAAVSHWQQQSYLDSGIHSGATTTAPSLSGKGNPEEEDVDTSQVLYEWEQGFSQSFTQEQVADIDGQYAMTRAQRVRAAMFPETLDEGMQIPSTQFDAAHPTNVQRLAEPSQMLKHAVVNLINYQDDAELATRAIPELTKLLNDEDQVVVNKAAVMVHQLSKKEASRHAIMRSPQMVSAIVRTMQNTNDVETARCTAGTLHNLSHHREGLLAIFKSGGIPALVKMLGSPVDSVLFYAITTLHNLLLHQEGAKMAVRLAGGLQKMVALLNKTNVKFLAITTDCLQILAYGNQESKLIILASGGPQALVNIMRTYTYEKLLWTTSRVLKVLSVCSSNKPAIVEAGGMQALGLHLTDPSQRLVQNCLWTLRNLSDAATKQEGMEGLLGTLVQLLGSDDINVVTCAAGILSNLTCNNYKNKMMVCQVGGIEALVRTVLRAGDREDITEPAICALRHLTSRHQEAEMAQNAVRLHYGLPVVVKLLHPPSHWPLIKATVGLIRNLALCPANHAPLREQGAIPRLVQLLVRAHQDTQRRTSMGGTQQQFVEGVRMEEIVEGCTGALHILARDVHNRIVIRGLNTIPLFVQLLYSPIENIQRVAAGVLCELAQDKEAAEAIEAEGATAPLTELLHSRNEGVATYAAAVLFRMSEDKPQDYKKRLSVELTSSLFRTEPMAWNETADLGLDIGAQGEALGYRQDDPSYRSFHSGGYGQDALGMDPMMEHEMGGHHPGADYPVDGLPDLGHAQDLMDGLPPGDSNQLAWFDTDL
UniProt P19785: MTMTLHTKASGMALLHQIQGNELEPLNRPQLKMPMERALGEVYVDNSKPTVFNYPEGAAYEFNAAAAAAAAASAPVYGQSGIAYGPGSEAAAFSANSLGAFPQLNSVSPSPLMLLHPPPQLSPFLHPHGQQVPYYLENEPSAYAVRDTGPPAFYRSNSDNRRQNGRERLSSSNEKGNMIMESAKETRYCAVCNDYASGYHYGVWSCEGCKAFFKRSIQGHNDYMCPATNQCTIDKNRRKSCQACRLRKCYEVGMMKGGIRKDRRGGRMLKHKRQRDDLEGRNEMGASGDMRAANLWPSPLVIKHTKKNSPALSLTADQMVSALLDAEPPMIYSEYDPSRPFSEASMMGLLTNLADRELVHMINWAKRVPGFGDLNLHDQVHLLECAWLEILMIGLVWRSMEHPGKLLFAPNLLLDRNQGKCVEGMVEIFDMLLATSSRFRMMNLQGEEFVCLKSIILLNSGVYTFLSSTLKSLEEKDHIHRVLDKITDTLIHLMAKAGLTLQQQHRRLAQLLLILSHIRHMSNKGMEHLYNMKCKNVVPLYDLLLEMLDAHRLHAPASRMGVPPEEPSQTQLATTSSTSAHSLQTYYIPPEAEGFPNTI
UniProt P03372: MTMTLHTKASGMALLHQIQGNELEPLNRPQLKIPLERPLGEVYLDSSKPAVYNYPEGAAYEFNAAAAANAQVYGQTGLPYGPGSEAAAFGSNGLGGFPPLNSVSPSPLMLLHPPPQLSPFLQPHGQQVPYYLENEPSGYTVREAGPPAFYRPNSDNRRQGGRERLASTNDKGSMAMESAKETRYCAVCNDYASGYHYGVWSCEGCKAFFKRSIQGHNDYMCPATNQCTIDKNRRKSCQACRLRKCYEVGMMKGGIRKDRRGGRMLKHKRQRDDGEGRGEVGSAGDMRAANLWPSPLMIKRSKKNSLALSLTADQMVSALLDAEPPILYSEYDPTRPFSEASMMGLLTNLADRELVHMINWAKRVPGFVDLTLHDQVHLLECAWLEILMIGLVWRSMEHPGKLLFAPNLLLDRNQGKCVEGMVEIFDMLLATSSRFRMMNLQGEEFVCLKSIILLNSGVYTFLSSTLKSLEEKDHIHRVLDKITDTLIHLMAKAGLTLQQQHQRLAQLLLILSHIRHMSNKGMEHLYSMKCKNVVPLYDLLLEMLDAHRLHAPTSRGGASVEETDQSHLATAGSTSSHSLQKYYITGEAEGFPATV
UniProt P02340: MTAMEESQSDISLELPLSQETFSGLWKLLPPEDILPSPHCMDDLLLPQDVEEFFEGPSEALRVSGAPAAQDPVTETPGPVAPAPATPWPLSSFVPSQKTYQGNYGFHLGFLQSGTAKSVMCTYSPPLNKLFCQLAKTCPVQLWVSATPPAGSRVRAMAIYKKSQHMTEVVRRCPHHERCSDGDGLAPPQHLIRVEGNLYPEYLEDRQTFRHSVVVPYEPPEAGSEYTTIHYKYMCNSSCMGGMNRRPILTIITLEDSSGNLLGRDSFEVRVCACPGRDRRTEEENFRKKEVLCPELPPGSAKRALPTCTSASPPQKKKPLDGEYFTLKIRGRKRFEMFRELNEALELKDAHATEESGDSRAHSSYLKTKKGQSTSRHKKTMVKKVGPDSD
UniProt P08047: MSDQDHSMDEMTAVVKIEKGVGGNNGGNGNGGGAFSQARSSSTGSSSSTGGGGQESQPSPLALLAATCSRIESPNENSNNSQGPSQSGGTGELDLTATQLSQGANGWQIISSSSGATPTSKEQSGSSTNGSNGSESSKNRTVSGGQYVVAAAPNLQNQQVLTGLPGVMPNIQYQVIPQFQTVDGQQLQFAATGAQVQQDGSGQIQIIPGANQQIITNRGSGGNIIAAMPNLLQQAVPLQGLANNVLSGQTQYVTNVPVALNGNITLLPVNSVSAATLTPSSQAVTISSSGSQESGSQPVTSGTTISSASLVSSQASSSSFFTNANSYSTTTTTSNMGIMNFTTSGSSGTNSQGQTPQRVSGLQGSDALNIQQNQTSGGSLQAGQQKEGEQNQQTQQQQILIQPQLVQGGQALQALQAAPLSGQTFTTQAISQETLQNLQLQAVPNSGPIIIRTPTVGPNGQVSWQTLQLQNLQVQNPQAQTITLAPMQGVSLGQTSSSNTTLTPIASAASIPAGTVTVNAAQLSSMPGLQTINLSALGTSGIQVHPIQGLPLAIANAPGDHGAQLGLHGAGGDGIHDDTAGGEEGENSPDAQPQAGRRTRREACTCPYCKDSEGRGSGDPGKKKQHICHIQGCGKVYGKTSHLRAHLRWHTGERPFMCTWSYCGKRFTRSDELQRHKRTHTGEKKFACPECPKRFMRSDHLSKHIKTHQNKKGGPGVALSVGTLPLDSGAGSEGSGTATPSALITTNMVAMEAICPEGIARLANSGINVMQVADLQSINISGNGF

Columns and labels:
[1] = biological target: T1, BCL9-2 in primary K19-BCL9-2 mouse mammary tumor cells (mouse (endogenous in primary K19-BCL9-2 mouse tumor cells)) (UniProt Q67FY2); test: co-IP; primary K19-BCL9-2 mouse mammary tumor cells, whole cell lysates, Protein A sepharose; Western blot
T1 sequence: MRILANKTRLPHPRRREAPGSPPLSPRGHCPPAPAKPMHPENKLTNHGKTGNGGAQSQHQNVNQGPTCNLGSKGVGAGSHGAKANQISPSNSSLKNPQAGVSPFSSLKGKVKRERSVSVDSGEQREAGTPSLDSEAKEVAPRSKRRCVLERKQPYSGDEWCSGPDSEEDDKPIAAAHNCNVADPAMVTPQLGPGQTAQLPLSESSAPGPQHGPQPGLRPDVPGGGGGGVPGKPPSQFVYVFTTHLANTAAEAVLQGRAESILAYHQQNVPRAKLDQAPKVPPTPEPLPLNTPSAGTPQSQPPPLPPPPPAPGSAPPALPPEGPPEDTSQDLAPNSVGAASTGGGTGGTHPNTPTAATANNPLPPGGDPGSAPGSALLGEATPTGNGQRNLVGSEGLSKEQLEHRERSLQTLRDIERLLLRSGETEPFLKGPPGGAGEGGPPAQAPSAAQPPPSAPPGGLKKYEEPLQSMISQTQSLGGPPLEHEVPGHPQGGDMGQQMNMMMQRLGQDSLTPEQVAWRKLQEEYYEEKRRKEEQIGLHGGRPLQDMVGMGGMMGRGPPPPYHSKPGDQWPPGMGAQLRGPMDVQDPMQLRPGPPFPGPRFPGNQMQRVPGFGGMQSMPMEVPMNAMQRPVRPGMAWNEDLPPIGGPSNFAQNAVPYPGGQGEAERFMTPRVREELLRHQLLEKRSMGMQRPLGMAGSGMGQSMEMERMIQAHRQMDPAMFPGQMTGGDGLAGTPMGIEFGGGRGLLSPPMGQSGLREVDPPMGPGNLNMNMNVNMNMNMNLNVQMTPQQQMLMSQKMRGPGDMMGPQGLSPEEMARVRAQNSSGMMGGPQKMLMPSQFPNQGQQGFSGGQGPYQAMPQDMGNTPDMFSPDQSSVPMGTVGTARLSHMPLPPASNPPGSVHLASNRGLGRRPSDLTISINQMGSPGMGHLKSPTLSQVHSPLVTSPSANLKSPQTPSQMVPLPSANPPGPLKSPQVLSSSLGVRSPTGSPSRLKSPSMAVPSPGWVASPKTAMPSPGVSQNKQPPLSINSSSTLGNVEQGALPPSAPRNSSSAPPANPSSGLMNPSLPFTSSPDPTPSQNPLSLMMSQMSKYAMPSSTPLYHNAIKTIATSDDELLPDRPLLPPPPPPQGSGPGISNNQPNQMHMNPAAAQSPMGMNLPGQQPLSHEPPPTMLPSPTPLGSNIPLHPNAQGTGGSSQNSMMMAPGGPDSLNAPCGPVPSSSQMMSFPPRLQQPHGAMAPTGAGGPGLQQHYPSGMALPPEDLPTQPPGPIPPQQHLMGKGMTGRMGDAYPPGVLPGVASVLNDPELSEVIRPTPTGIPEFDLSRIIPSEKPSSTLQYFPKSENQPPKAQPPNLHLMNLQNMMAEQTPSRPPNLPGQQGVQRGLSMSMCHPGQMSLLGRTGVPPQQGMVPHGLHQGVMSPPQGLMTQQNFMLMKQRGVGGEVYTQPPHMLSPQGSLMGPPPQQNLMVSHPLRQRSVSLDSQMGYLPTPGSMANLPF

[2] = biological target: Sp1 (mouse) (mouse (endogenous in primary K19-BCL9-2 mouse tumor cells)) (UniProt O89090); test: as above
[3] = biological target: T2, BCL9-2 (BCL9L, B-Cell Lymphoma 9-like) (human (endogenous in MCF7 and T47D)) (UniProt Q86UU0); test: co-IP; endogenous proteins, T47D whole cell lysates, Protein A sepharose; Western blot
T2 sequence: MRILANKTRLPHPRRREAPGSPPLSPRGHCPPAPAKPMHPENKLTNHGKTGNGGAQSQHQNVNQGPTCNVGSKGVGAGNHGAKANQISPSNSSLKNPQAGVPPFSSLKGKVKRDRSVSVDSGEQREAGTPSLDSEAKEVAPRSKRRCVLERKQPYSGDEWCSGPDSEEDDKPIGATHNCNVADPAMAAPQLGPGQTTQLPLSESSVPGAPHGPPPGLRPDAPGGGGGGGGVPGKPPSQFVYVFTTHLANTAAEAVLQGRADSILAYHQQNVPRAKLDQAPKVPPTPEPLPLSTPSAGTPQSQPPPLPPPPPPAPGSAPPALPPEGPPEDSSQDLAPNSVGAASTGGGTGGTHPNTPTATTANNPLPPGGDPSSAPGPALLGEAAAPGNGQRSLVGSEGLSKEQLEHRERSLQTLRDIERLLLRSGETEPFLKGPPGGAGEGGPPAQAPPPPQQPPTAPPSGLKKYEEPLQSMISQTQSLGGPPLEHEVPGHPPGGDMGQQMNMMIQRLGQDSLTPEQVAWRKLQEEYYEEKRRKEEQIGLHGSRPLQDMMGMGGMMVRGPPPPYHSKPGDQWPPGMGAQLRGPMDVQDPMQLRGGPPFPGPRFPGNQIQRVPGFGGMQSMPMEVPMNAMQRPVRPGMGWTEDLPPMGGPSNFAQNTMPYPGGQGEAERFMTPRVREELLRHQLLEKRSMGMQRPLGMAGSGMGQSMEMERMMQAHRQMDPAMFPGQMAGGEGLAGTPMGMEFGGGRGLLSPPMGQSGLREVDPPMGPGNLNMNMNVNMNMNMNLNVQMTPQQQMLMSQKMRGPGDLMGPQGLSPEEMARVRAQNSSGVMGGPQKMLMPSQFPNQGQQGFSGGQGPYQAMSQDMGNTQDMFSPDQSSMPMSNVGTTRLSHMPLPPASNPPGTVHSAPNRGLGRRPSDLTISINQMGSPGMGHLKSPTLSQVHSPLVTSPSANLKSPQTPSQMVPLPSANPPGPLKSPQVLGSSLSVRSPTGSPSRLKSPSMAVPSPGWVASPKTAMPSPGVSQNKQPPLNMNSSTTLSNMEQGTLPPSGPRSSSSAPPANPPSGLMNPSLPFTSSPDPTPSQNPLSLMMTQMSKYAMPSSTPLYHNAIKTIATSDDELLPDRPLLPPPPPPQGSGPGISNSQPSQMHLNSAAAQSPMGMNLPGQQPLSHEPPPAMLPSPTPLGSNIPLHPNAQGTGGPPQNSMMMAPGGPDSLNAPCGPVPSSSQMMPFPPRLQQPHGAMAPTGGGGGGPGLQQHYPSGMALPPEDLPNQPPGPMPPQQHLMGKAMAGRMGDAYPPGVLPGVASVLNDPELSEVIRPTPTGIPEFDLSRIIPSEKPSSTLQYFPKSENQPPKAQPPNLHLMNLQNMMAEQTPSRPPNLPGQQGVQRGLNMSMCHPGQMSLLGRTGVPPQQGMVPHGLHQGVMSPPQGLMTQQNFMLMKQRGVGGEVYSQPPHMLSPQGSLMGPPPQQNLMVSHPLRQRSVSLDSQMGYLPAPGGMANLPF

[4] = biological target: ß-catenin (human (endogenous in MCF7 and T47D)) (UniProt P35222); test: as above
[5] = biological target: T2, BCL9-2 (BCL9L, B-Cell Lymphoma 9-like) (human (endogenous in MCF7 and T47D)); test: co-IP; endogenous proteins, MCF7 whole cell lysates, Protein A sepharose; mouse and rabbit IgG as negative controls; Western blot
[6] = biological target: ß-catenin (human (endogenous in MCF7 and T47D)) (UniProt P35222); test: as above
[7] = biological target: T3, Pygo2 (human (endogenous in MCF7 and T47D)) (UniProt Q9BRQ0); test: co-IP; endogenous proteins, T47D whole cell lysates, Protein A sepharose; Western blot
T3 sequence: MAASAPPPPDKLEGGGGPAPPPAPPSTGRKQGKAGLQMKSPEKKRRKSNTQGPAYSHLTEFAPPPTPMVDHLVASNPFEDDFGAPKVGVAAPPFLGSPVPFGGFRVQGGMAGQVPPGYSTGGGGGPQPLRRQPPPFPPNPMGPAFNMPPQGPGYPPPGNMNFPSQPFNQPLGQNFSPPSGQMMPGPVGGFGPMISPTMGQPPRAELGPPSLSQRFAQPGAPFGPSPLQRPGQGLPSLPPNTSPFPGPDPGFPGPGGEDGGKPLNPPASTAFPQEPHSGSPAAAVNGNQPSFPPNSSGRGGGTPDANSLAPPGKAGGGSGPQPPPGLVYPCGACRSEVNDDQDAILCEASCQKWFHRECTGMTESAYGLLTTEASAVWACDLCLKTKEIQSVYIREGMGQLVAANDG

[8] = biological target: T3, Pygo2 (human (endogenous in MCF7 and T47D)); test: co-IP; endogenous proteins, MCF7 whole cell lysates, Protein A sepharose; mouse and rabbit IgG as negative controls; Western blot
[9] = biological target: ß-catenin (mouse) (mouse (endogenous in primary K19-BCL9-2 mouse tumor cells)) (UniProt Q02248); test: co-IP; primary K19-BCL9-2 mouse mammary tumor cells, whole cell lysates, Protein A sepharose; Western blot

binding [1] | binding [3] | binding [5] | binding [7] | binding [8] | Substance | other results
no binding | – | – | – | – | estrogen receptor alpha (ER) (mouse) (from UniProt P19785 1-599) | binding [2]: no binding
– | no binding | no binding | no binding | no binding | estrogen receptor alpha (ER) (from UniProt P03372 1-595) | –

Continued, substance first:

Substance | binding [1] | binding [3] | binding [5] | binding [7] | binding [8] | other results
p53 (from UniProt P04637 1-393) | – | no binding | no binding | – | – | binding [4]: no binding; binding [6]: no binding
p53 (mouse) (from UniProt P02340 1-390) | no binding | – | – | – | – | binding [9]: no binding
Sp1 (specificity protein 1) (from UniProt P08047 1-785) | – | – | – | binds weakly | binds weakly | –
